This is an account of results in PMC4336329 (PLoS ONE, 2015).

Hit rate of the full screen: of about 310,000 compounds, about 14,000 (4.5%) showed an effect of 50% or more. The effect is printed as a negative number. The list shows a part of the results.
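Also: peak tail current of the secondary pulse compared with the same well before compound.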

In the experiment the target is human ether-à-go-go-related gene (hERG) potassium channel (human, UniProt Q12809). The experiment is described as follows: primary screen, population patch clamp on CHO cells stably expressing hERG.
Sequence of human ether-à-go-go-related gene (hERG) potassium channel (Q12809 whole entry, looked up): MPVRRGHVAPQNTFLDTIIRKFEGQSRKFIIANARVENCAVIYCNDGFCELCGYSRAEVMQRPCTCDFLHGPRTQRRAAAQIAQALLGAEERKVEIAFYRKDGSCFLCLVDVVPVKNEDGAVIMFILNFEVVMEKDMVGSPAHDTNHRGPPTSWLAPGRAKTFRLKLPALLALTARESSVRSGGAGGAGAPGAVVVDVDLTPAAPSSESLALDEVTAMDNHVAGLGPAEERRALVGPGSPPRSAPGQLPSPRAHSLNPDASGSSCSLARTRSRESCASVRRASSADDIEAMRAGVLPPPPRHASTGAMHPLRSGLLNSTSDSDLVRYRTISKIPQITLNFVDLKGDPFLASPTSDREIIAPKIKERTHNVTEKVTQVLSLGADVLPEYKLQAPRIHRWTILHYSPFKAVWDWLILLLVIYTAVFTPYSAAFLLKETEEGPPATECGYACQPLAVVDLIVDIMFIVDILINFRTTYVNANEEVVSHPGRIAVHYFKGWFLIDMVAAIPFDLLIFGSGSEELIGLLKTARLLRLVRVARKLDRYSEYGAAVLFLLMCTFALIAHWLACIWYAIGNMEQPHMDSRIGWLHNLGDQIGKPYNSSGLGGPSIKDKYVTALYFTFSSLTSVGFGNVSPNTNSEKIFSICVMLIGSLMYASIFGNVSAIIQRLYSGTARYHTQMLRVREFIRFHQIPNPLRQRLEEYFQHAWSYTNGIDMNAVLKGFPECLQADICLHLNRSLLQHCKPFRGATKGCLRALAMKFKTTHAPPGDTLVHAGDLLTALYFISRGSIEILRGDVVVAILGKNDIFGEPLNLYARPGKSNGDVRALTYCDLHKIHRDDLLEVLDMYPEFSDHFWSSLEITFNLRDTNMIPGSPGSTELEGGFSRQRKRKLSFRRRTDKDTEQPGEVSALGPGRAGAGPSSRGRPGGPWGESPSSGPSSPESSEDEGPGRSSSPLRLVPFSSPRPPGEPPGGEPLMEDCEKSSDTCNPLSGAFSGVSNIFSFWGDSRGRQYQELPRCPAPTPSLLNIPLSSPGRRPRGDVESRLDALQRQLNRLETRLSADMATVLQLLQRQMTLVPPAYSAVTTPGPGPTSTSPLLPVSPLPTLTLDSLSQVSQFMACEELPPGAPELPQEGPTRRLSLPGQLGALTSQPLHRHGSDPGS
For `COc1ccc(-n2nc(C(=O)NCC(=O)N(C)Cc3ccccc3)c3ccccc3c2=O)cc1OC`, the “hERG current change (%, negative = inhibition) at 10uM” value is recorded as -9.49%. Next, `N=c1oc2ccccc2cc1C(=O)NC1CCCCCC1`: -23.7%; `O=C(CN(C(=O)c1ccccc1Cl)N1C(=O)CCCC1=O)c1ccc(Cl)cc1`: 7.29%.

Consider `CN1C(=O)c2cccc3c(S(=O)(=O)Nc4ccccn4)ccc1c23`, for which the “hERG current change (%, negative = inhibition) at 10uM” value came to 9.38%.

For `O=C(CCSc1nc2ccccc2o1)Nc1ccccc1`, the “hERG current change (%, negative = inhibition) at 10uM” value came to 10.1%.

As for `Cc1ccccc1N(C(=O)c1ccccn1)C(C(=O)NCc1ccccc1)c1cccnc1` (stereo not drawn), the “hERG current change (%, negative = inhibition) at 10uM” value is -4.96%.

Consider `CN(C)CCCCCN(C)Cc1cc2ccccc2o1.Cl`, for which the “hERG current change (%, negative = inhibition) at 10uM” value is listed as 27.8%. Next, `Cc1ccc(/C=C/c2nc3ccccc3s2)s1`: 3.83%; `CCC(C)(NC(=O)c1ccccn1)C(=O)NC1CCCCC1` (stereo not drawn): 5.98%. The result for `Cc1ccc(S(=O)(=O)N/N=C/c2cc([N+](=O)[O-])ccc2O)cc1[N+](=O)[O-]` reads 11.9%; that for `COc1ccc(S(=O)(=O)N2CCCCCC2)cc1C(=O)Nc1ccccn1`, 17.8%; that for `COC(=O)c1ccc(NS(=O)(=O)c2ccc3c(c2)oc(=O)n3C)cc1`, 1.11%. On to `CC(C)C[C@@H](C(=O)O)N(Cc1cccc(CN([C@@H](CC(C)C)C(=O)O)S(C)(=O)=O)c1)S(C)(=O)=O`, for which the “hERG current change (%, negative = inhibition) at 10uM” value came to 4.08%.

With `CCNC(=O)COC(=O)c1csc2c1CCCC2`, the “hERG current change (%, negative = inhibition) at 10uM” value is reported as -1.35%.

With `COc1ccc(CCNC(=O)CSc2nc3c(c(=O)n(C)c(=O)n3C)n2C(C)C)cc1OC`, the “hERG current change (%, negative = inhibition) at 10uM” value is -25.1%. Next, `O=C(NC1CCCC1)C(c1cccnc1)N(C(=O)c1ccco1)c1cccc(F)c1` (stereo not drawn): 8.97%; `O=C(Cn1cnc2c(nnn2Cc2ccc(Cl)cc2)c1=O)c1ccccc1`: 6.26%; `N#Cc1c(NC(=O)C2C3C=CC(C3)C2C(=O)O)sc2c1CCCCC2` (stereo not drawn): 14.4%.

On to `COc1cc2c(cc1OC)CN(C(=O)CCCN1C(=O)c3ccccc3C1=O)CC2`, for which the “hERG current change (%, negative = inhibition) at 10uM” value is on record as -8.82%.

On to `COc1ccccc1NC(=O)N1CCC(C(=O)c2ccc(F)cc2)CC1`, for which the “hERG current change (%, negative = inhibition) at 10uM” value came out at 0.487%. For `O=C1c2ccccc2C(=O)c2c1cccc2N1CCCC1`, the “hERG current change (%, negative = inhibition) at 10uM” value is listed as -14.3%. The result for `C=CC[n+]1c(-c2ccc(Cl)cc2Cl)csc1Nc1c(C)n(C)n(-c2ccccc2)c1=O.[Cl-]` reads -36.9%. `Cc1ccc(NC(=O)c2ccccc2-c2ccccc2C(=O)O)cc1`: the “hERG current change (%, negative = inhibition) at 10uM” value was 14.1%.

`CCCn1c(=O)n(C)c(=O)c2c(SCc3cc(C(C)=O)ccc3OCC)nc(C3CC3)nc21`: the “hERG current change (%, negative = inhibition) at 10uM” value is -1.54%. The result for `Cc1ccc(/C=N/NC(=O)Nc2ccccc2)o1` reads -3.6%. As to `COc1ccc(N(C=O)C(C(=O)Nc2c(C)cccc2C)c2ccccc2)cc1` (stereo not drawn), the “hERG current change (%, negative = inhibition) at 10uM” value is -3.39%.

On to `CCCCNC(=O)CCCCC(=O)N/N=C/c1cccc(Cl)c1`, for which the “hERG current change (%, negative = inhibition) at 10uM” value was -14.3%. Next, `O=C(CCNc1ccc(F)cc1)c1cc2ccccc2o1`: 12.2%; `COC(=O)C(CCSC)NC(=O)Cn1ncc2c(=O)oc3ccc(C)cc3c21` (stereo not drawn): -16.8%; `CCn1cc(S(=O)(=O)N2CCc3ccccc3C2)cn1`: 10%. The result for `O=C(Nc1nonc1-c1ccc(F)cc1)c1ccco1` reads -4.51%. The result for `ClC1=C(Cl)C(Cl)=C(Cl)C1=C/C=C/c1ccccc1` reads 1.91%; that for `O=C(Nc1nc(-c2ccccc2)cs1)C1CCCCN1S(=O)(=O)c1ccccc1` (stereo not drawn), -3.48%; that for `COc1ccc(C2CC(c3ccccc3)=NN2C(=O)COC(=O)C2CC2)cc1` (stereo not drawn), -4.19%.

For `O=C(O)c1ccccc1OCc1nc2ccccc2s1`, the “hERG current change (%, negative = inhibition) at 10uM” value is recorded as 14.3%. The result for `Cc1ccc(CNC(=O)C2CCN(S(=O)(=O)c3c(C)noc3/C=C/N(C)C)CC2)cc1` reads -24.2%; that for `CCOc1cc2c(cc1/C=C/c1noc(C)c1[N+](=O)[O-])OC(C)C2` (stereo not drawn), 22.9%; that for `C=CCN1C(=O)C(C)S/C1=N\S(=O)(=O)c1ccc(Cl)cc1` (stereo not drawn), -1.04%. With `Cc1ccsc1/C=N\NC(=O)CCc1c(C)n[nH]c1C`, the “hERG current change (%, negative = inhibition) at 10uM” value worked out at 1.57%. Regarding `Cc1cc(C(=O)Nc2ccccc2C(=O)O)ccc1NC(=O)COc1cccc(C)c1C`, the “hERG current change (%, negative = inhibition) at 10uM” value is 4.47%.

Consider `Cc1nnc(SCCn2c(N3CCC(Cc4ccccc4)CC3)nc3c2c(=O)[nH]c(=O)n3C)s1`, for which the “hERG current change (%, negative = inhibition) at 10uM” value is recorded as -23.6%. Next, `COc1ccc(C(=O)O)cc1S(=O)(=O)N(C)C`: 16.6%; `COC(=O)c1ccc(CNC(=O)COC(=O)COc2ccc(OC)cc2)cc1`: 17.2%; `COc1cc(C)c(/C=C/C(C)=C/C=C/C(C)=C/C(=O)O)c(C)c1C`: 11.4%.

In the case of `O=C(COC(=O)c1c(Cl)cccc1Cl)Nc1cc(Cl)ccc1Oc1ccccc1`, the “hERG current change (%, negative = inhibition) at 10uM” value came to 2.19%. The result for `CC(C(=O)N1CCc2ccccc21)N1CCN(Cc2ccc(Cl)cc2)CC1` (stereo not drawn) reads -67%; that for `Cc1[nH]nc(S(=O)CC(=O)O)c1[N+](=O)[O-]` (stereo not drawn), 19%; that for `O=S(=O)(Nc1ccc2c(c1)OCO2)c1ccc(Cl)cc1F`, -20.5%. Next, `COC(=O)c1sccc1NC(=O)CSc1ccccc1NS(=O)(=O)c1ccc(F)cc1`: -11.5%; `O=c1c[n+]([O-])c2ccccc2n1OCc1c(F)cccc1F`: -4.87%; `O=C(CCc1ccc(S(=O)(=O)N2CCOCC2)cc1)N1CCc2ccccc2C1`: -14.5%. For the molecule `Cn1c(=O)c2ncn(CC(=O)N=Nc3c(O)[nH]c4ccccc34)c2n(C)c1=O`, the “hERG current change (%, negative = inhibition) at 10uM” value amounted to 20.7%. The result for `Cc1cccc(OCC(=O)NCC(=O)N/N=C/c2ccc(N(C)C)cc2)c1` reads 0.0886%; that for `COc1ccc(S(=O)(=O)CCC(=O)Nc2ccc(OC)cc2OC)cc1`, -7.54%.
